Laboratory results reported in the supplement of paper PMC10326071.
Several values for one entry are separate records, joined by “and”; a condition that tells them apart may be missing. Identical values can stand only once. This is one part of the list. Single values are uncertain, as repeats are few or missing.

Key:
[1] = system: SARS-CoV-2 nsp3 SARS-unique domain core (SUD-core, nsp3 residues 413-676); assay: dissociation rate constant koff (BLI); higher = faster dissociation; details: 100 µM; 25 °C
[2] = system: SARS-CoV-2 nsp3 SARS-unique domain core (SUD-core, nsp3 residues 413-676); assay: apparent dissociation constant Kd (single-concentration BLI fit); higher = weaker binding; details: 100 µM; 25 °C

| SMILES | dissociation rate constant koff [1] | apparent dissociation constant Kd [2] |
| --- | --- | --- |
| O=C(Nc1ccc2[nH]nc(-c3ccncc3)c2c1)[C@@H]1CCN(CC(=O)N2CCN(c3ccc(-c4ncccn4)cc3)CC2)C1 | 0.599 s⁻¹ | 2430 µM |
| CCC(=O)NC1CCC(N2C(=O)N(c3ccccc3Cl)Cc3cnc(Nc4ccc(N5CCN(C)CC5)c(C)c4)nc32)CC1 (configuration not stated) | 0.474 s⁻¹ | 3390 µM |
| COc1cc2ncnc(Nc3ccc(F)c(Cl)c3)c2cc1OCCCN1CCOCC1 | 0.0409 s⁻¹ | 293 µM |
| NC(=O)c1ccc2nc(-c3ccc(C4(N)CCC4)cc3)c(-c3ccccc3)n2n1 | 0.375 s⁻¹ | 426 µM |
| COc1cc2c(Oc3ccc(NC(=O)C4(C(=O)Nc5ccc(F)cc5)CC4)cc3F)ccnc2cc1OCCCN1CCOCC1 | 0.0578 s⁻¹ | 3020 µM |
| O=c1[nH]c(=O)n([C@H]2C[C@H](O)[C@@H](CO)O2)cc1Br | 0.0129 s⁻¹ | 126 µM |
| COc1cc2ncnc(Nc3ccc(O)cc3)c2cc1OC | 0.281 s⁻¹ | 242 µM |
| C=CC(=O)Nc1cc2c(Nc3ccc(F)c(Cl)c3)ncnc2cc1C#CC(C)(C)N1CCN(C)CC1 | 0.0579 s⁻¹ | 63.7 µM |
| CN(C)Cc1cccc(N=C(c2ccccc2)c2c(O)[nH]c3cc(C(N)=O)ccc23)c1 | 0.0552 s⁻¹ | 96 µM |
| Cc1cn([C@@H]2O[C@H](CO)[C@@H](O)[C@H]2O)c(=O)[nH]c1=O | 0.0132 s⁻¹ | 191 µM |
| CC(C)c1cnc(-c2cc(Cl)ccc2F)cc1Nc1ccncc1C(=O)NC(CO)CO | 0.216 s⁻¹ | 2710 µM |
| O=C1NC(=O)/C(=C/c2ccc(-c3ccc(F)cc3O)o2)S1 | 0.165 s⁻¹ | 418 µM |
| CO[C@@H]1[C@H](O)[C@@H](CO)O[C@H]1n1ccc(=O)[nH]c1=O | 0.415 s⁻¹ | 2490 µM |
| Nc1ncnc2c1c(-c1ccc(Oc3ccccc3)cc1)cn2C1CCCC1 | 0.0212 s⁻¹ | 132 µM |
| COc1ccc2c(c[n+](C)c3c4cc5c(cc4ccc23)OCO5)c1OC | 0.0721 s⁻¹ | 2680 µM |
| C[C@H]1CC[C@]2(NC1)O[C@H]1C[C@H]3[C@@H]4CC[C@H]5C[C@@H](O)CC[C@]5(C)[C@H]4CC[C@]3(C)[C@H]1[C@@H]2C | 0.223 s⁻¹ | 470 µM |
| Cc1ccc(NC(=O)c2ccnc(C(F)(F)F)c2)cc1-c1cc(OCCO)nc(N2CCOCC2)c1 | 0.233 s⁻¹ | 2990 µM |
| C[C@@H](c1ccc(F)cc1)n1nnc2cnc3ccc(-c4ccc5ocnc5c4)cc3c21 | 0.0332 s⁻¹ | 13600 µM |
| CCCC(=O)Nc1nc2c(ncn2[C@@H]2O[C@@H]3COP(=O)(O)O[C@H]3[C@H]2OC(=O)CCC)c(=O)[nH]1 | 0.0162 s⁻¹ | 66.6 µM |
| Cc1cc2c(F)c(Oc3ncnn4cc(OC[C@@H](C)OC(=O)[C@H](C)N)c(C)c34)ccc2[nH]1 | 0.0661 s⁻¹ | 7530 µM |
| CCc1cccc(CC)c1NC(=O)N1Cc2[nH]nc(NC(=O)c3ccc(N4CCN(C)CC4)cc3)c2C1 | 0.0862 s⁻¹ | 139 µM |
| COc1ccc2[nH]cc(/C=C3\C(=O)Nc4ccc(NC(=O)CCN5CCCCC5)cc43)c2c1 | 0.376 s⁻¹ | 2510 µM |
| O=c1ccn2c(n1)O[C@H]1[C@H](O)[C@@H](CO)O[C@H]12 | 0.00911 s⁻¹ | 40.2 µM |
| CCS(=O)(=O)Nc1ccc2[nH]c(O)c(C(=Nc3ccc(CN4CCCCC4)cc3)c3ccccc3)c2c1 | 0.0347 s⁻¹ | 51.7 µM |

| SMILES | dissociation rate constant koff [1] | apparent dissociation constant Kd [2] |
| --- | --- | --- |
| COC1(C(=O)N[C@@H](C)c2ccc(-n3cc(F)cn3)nc2)CCC(c2nc(C)cc(Nc3cc(C)[nH]n3)n2)CC1 (some centres not stated) | 0.749 s⁻¹ | 17100 µM |
| CNC(=O)[C@H]1O[C@@H](n2cnc3c(NCc4cccc(I)c4)nc(Cl)nc32)[C@H](O)[C@@H]1O | 0.481 s⁻¹ | 969 µM |
| CN1CCC(c2ccccc2CC(C)(C)Nc2nc(N3CCOCC3)nc(-n3c(S(C)(=O)=O)nc4ccccc43)n2)CC1 | 0.736 s⁻¹ | 2520 µM |
| Nc1nc(N[C@H]2C[C@@H]3CC[C@H]2C3)sc1C(=O)c1ccccc1[N+](=O)[O-] | 0.0493 s⁻¹ | 6.51 µM |
| O=c1c(-c2ccc(O)cc2)coc2cc(O)cc(O)c12 | 0.243 s⁻¹ | 2120 µM |
| COc1c(O)cc2oc(-c3ccc(O)cc3)cc(=O)c2c1O | 0.476 s⁻¹ | 2320 µM |
| OC[C@H]1O[C@@H](n2cnc3c2ncn2ccnc32)C[C@@H]1O | 0.0802 s⁻¹ | 12100 µM |
| NC1(Cc2ccc(Cl)cc2)CCN(c2ncnc3[nH]ccc23)CC1 | 0.755 s⁻¹ | 1070 µM |
| O=C1Nc2nc(-c3c(O)cccc3OCC3CC3)cc([C@@H]3CCCNC3)c2CO1 | 1.4 s⁻¹ | 2210 µM |
| Cc1ccc(NC(=O)Nc2nnc(Sc3ncnc4cc(OCCCN5CCOCC5)ccc34)s2)cc1 | 0.00868 s⁻¹ | 45.4 µM |
| Cc1cccc(C)c1-n1c(=O)c2cnc(Nc3ccc(N4CCN(C)CC4)cc3)nc2n2c3ccccc3nc12 | 0.0305 s⁻¹ | 74.3 µM |
| C[C@@H](Oc1ccc2[nH]nc(/C=C/c3cnn(CCO)c3)c2c1)c1c(Cl)cncc1Cl | 0.047 s⁻¹ | 101 µM |
| CN1C(=O)[C@@H](NC(=O)c2cc(Cc3ccccc3)on2)COc2ccccc21 | 0.0856 s⁻¹ | 9.71 µM |
| Cc1ccc(NC(=O)c2ccc(CN(CCN(C)C)C(=O)c3cccnc3)cc2)cc1Nc1nccc(-c2cccnc2)n1 | 0.139 s⁻¹ | 4050 µM |
| COc1cc2nccc(Oc3ccc(NC(=O)Cc4ccc(Cl)c(C(F)(F)F)c4)cc3)c2cc1OC | 0.0133 s⁻¹ | 283 µM |
| CCCc1cc(=O)[nH]c(=S)[nH]1 | 0.0134 s⁻¹ | 67.4 µM |
| CNc1ncc2cc(-c3ccc(-c4cccc(C)n4)cc3Cl)c(=O)n(CC3OCC(N)CO3)c2n1 (configuration not stated) | 0.315 s⁻¹ | 5880 µM |
| Nc1ncnc2c1ncn2[C@@H]1O[C@H](COP(=O)(O)O)[C@@H](O)[C@H]1O | 0.0253 s⁻¹ and 0.0285 s⁻¹ | 103 µM and 265 µM |
| N#CC(c1ccnc(OCc2ccc(CN3CCOCC3)cc2)n1)c1nc2ccccc2s1 (configuration not stated) | 0.0169 s⁻¹ | 89.5 µM |
| C=CC(=O)Nc1cc(Nc2nccc(-c3c[nH]c4ccccc34)n2)c(OC)cc1N(C)CCN(C)C | 0.945 s⁻¹ | 2050 µM |
| COc1cccc(OCCCN)c1-c1cc(Nc2cnc(C#N)cn2)n[nH]1 | 0.0355 s⁻¹ | 14.8 µM |
| Cc1cccc(/C=N/Nc2cc(N3CCOCC3)nc(OCCc3ccccn3)n2)c1 | 0.565 s⁻¹ | 2610 µM |
| COc1ccc(F)c(F)c1C(=O)c1cnc(NC2CCN(S(C)(=O)=O)CC2)nc1N | 0.613 s⁻¹ | 708 µM |
| CC(C)n1c(=O)n(C)c2cnc3cc(F)c(-c4ccc(OCCCN5CCCCC5)nc4)cc3c21 | 0.0565 s⁻¹ | 17.1 µM |

| SMILES | dissociation rate constant koff [1] | apparent dissociation constant Kd [2] |
| --- | --- | --- |
| C=CC(=O)N1CCC(C2CCNc3c(C(N)=O)c(-c4ccc(Oc5ccccc5)cc4)nn32)CC1 (configuration not stated) | 1.21 s⁻¹ | 1470 µM |
| C[C@@H]1CC[C@@]2(OC1)O[C@H]1C[C@H]3[C@@H]4CC=C5C[C@@H](O[C@@H]6O[C@H](CO)[C@@H](O[C@@H]7O[C@@H](C)[C@H](O[C@@H]8O[C@@H](C)[C@H](O)[C@@H](O)[C@H]8O)[C@@H](O)[C@H]7O)[C@H](O)[C@H]6O[C@@H]6O[C@@H](C)[C@H](O)[C@@H](O)[C@H]6O)CC[C@]5(C)[C@H]4CC[C@]3(C)[C@@]1(O)[C@@H]2C | 1.7 s⁻¹ | 1260 µM |
| c1coc(CNc2ncnc3nc[nH]c23)c1 | 0.00931 s⁻¹ | 141 µM |
| CCOc1cc(N2CCC(O)CC2)ccc1Nc1ncc2c(n1)N(C1CCCC1)CCC(=O)N2C | 0.631 s⁻¹ | 1800 µM |
| CCn1c(=O)c(-c2ccc(Cl)cc2Cl)cc2cnc(Nc3ccc(N4CCNCC4)c(F)c3)nc21 | 0.00537 s⁻¹ | 159 µM |
| C[C@@H]1O[C@@H](Oc2cc(O)c3c(=O)c(O[C@@H]4O[C@@H](C)[C@H](O)[C@@H](O)[C@H]4O)c(-c4ccc(O)cc4)oc3c2)[C@H](O)[C@H](O)[C@H]1O | 2.13 s⁻¹ | 1170 µM |
| O=C(c1ccc(-c2ccc(Cl)cc2)o1)N(Cc1ccccn1)c1ccc(N2CCNCC2)cc1 | 0.204 s⁻¹ | 3280 µM |
| Nc1ncnc2c1ncn2C1CCCO1 (configuration not stated) | 0.0139 s⁻¹ | 105 µM |
| COCc1c(-c2ccc(NC(=O)Nc3cc(C(F)(F)F)ccc3F)c(F)c2)c2c(N)ncnn2c1CN1CCOCC1 | 0.147 s⁻¹ | 3580 µM |
| COc1cccc([C@@H](C)NC(=O)c2ccc(-c3ccncc3)cc2)c1 | 0.76 s⁻¹ | 1480 µM |
| C#C[C@@]1(O)[C@@H](CO)O[C@@H](n2ccc(N)nc2=O)[C@@H]1O | 0.0161 s⁻¹ | 6320 µM |
| NC(=O)C1=CN([C@@H]2O[C@H](COP(=O)(O)OP(=O)(O)OC[C@H]3O[C@@H](n4cnc5c(N)ncnc54)[C@H](OP(=O)(O)O)[C@@H]3O)[C@@H](O)[C@H]2O)C=CC1.NC1CCCCC1.NC1CCCCC1.NC1CCCCC1.NC1CCCCC1 | 0.0139 s⁻¹ | 61.5 µM |
| Cc1ccc2c(NS(=O)(=O)c3ccccc3Cl)cccc2c1Oc1ncccc1-c1ccnc(N[C@H]2CCCNC2)n1 | 0.123 s⁻¹ | 512 µM |
| CCn1cc(-c2ccnc3[nH]c(-c4cccc(CN(C)C)c4)cc23)c(-c2ccc(NC(=O)N(C)C)cc2)n1 | 0.0557 s⁻¹ | 8530 µM |
| C=C(C)[C@H](C)c1cc(/C=C/C(=O)c2ccc(O)cc2)c(OC)cc1O | 0.067 s⁻¹ | 10100 µM |
| Nc1ccn([C@@H]2O[C@H](CO)[C@@H](O)[C@H]2O)c(=O)n1 | 0.0396 s⁻¹ | 181 µM |
| O=C(NCCN1CCOCC1)c1cc2c(Oc3ccc(NC(=O)C4(C(=O)Nc5ccc(F)cc5)CC4)cc3)ccnc2[nH]1 | 0.486 s⁻¹ | 3140 µM |
| CCC(C)N1c2ccccc2C(=O)N(C)c2cnc(Nc3ccc(C(=O)N4CCC(N5CCN(C)CC5)CC4)cc3OC)nc21 (configuration not stated) | 1.73 s⁻¹ | 1600 µM |
| C[N+](C)(C)CCOP(=O)(OC[C@H]1O[C@@H](n2ccc(N)nc2=O)[C@H](O)[C@@H]1O)OP(=O)([O-])O (some centres not stated) | 0.083 s⁻¹ | 85.7 µM |
| c1ccc(-c2nc3c(c(-n4ccc5cnccc54)n2)CCC3)nc1 | 0.691 s⁻¹ | 113 µM |
| Cc1cc(Nc2cc(N)ncn2)c(=O)n2c1C(=O)NC21CCCCC1 | 0.129 s⁻¹ | 1300 µM |
| Cc1cccc(-c2[nH]ncc2-c2ccc(F)c(-c3cnn(CCO)c3)c2)n1 | 0.252 s⁻¹ | 21200 µM |
| CC(=O)Nc1ccn([C@@H]2O[C@H](CO)[C@@H](O)[C@H]2O)c(=O)n1 | 0.0322 s⁻¹ | 211 µM |
